# Measurements: the supplement of paper PMC3724861
# Some of the results follow.
# System: T1, Caupolican (Caup) homeodomain DNA-binding domain
# T1 sequence: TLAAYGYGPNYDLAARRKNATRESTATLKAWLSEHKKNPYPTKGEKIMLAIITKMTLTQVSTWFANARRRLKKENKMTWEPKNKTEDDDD
# Experiment: PBM E-score (8-mer, recovered from the published 9-mer minima) (E-score (dimensionless, -0.5 to 0.5)); Drosophila protein; higher = stronger relative binding preference, active = 0.31 or more
# Outline: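 Caup's homeodomain DNA-binding domain (residues 214-303) was produced by in vitro transcription and translation and applied at 100 nM to custom-designed protein binding microarrays. Each value is an enrichment score giving relative binding preference for a short DNA word; higher means stronger. Published 9-mer scores were the minimum of their two constituent 8-mer scores, and the 8-mer values were recovered from those minima. A cutoff of 0.31 marks candidate binding sequences.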
row,Sequence,PBM E-score
1,GCAGTCGA,inactive: -0.135
2,CGCGCCCA,inactive: -0.12
3,TATCAACA,inactive: 0.248
4,GGCGGTGA,inactive: -0.117
5,ACCTTTAC,inactive: 0.069
6,GGATGACC,inactive: -0.12
7,CCGTGCAA,inactive: -0.00032
8,AGAGTAAG,inactive: -0.0115
9,AGTGTCAC,inactive: 0.13
10,AACACTAT,inactive: 0.174
11,GACCAGCC,inactive: -0.111
12,CTGTCGTC,inactive: 0.0801
13,AGGGGTCG,inactive: -0.156
14,CTGCTGAA,inactive: 0.0208
15,ATGAAACA,inactive: 0.197
16,TACAACTA,inactive: 0.239
17,AGCAGCAC,inactive: -0.0836
18,AGAAACCT,inactive: -0.00153
19,ACACCGAA,inactive: 0.145
20,GTCCGTCA,inactive: 0.0822
21,AGCGTCTA,inactive: -0.0661
22,GACCGAGC,inactive: -0.152
23,ACTACTCT,inactive: 0.0627
24,ACTGGACA,inactive: 0.159
25,ACGTGACA,inactive: 0.265

row,Sequence,PBM E-score
1,AATGTATA,inactive: 0.271
2,GCATGGAA,inactive: -0.00398
3,CAGCGTTC,inactive: -0.12
4,AATAGGAC,inactive: 0.0898
5,AATCGTAC,inactive: 0.0812
6,ATAGTATA,inactive: 0.192
7,GCAATAAC,inactive: 0.0387
8,GACCGACA,inactive: 0.0747
9,GCTTTATA,inactive: 0.0362
10,GAATCGAA,≥ 0.134
11,ACTCAATA,inactive: 0.109
12,CATGTACG,active: 0.409
13,CTTCAAAA,inactive: 0.0461
14,CAGTCAGC,inactive: -0.165
15,AAAATGGA,≥ 0.145
16,ACACCTCG,inactive: 0.0742
17,GAGGACGA,inactive: -0.00296
18,CTCCCTGC,inactive: -0.235
19,ATTGCACG,inactive: 0.114
20,CTCTCTCC,inactive: -0.217
21,CGGTCGAG,inactive: -0.229
22,GTGCGAGA,inactive: -0.0224
23,CGAAGAAC,inactive: 0.0582
24,AGTCTCTA,inactive: 0.0146
25,CCGGTAGC,inactive: -0.1

row,Sequence,PBM E-score
1,CTCAGTTA,inactive: -0.0261
2,GCAGGAAA,inactive: -0.0235
3,TGATGAAA,inactive: 0.0756
4,TCATTGGA,inactive: -0.0276
5,CTCATTAA,inactive: 0.0612
6,CCATTGCG,inactive: -0.158
7,CCCTATGA,inactive: -0.191
8,TGAGTACA,inactive: 0.265
9,ATAAGCAA,inactive: 0.12
10,ATGCGGTG,inactive: -0.0604
11,GAACCATA,inactive: -0.0301
12,CCTTGAAA,inactive: -0.00531
13,TGAGACAA,inactive: 0.153
14,AAGGCACT,inactive: -0.108
15,CCTTAAAA,inactive: 0.0119
16,ATCCATAG,inactive: 0.0531
17,CCAGTATA,inactive: 0.0207
18,ATCAAGCA,inactive: 0.0636
19,CTGCGGTC,inactive: -0.18
20,TATGACGA,inactive: 0.116
21,AGTCTATG,inactive: -0.0427
22,GCTCATAC,inactive: -0.0431
23,ATGAAGAA,≥ 0.1
24,GAAAGCCC,inactive: -0.118
25,AACGTGGT,inactive: 0.123

row,Sequence,PBM E-score
1,GATCCACC,inactive: -0.118
2,AGAGCCCA,inactive: -0.108
3,GAATTCTC,inactive: 0.0234
4,ATACTGGC,inactive: -0.0488
5,CCGATTCC,inactive: -0.0905
6,AGGTGCAG,inactive: -0.103
7,CCATCGGG,inactive: -0.122
8,AGTTGTGC,inactive: 0.0219
9,GGCTGGTA,inactive: -0.0176
10,ATTGTTAC,inactive: 0.307
11,TAAGGAAA,inactive: 0.0604
12,CGGTTCGA,inactive: -0.103
13,AGAGCCGG,inactive: -0.203
14,ATTATCTC,inactive: 0.0726
15,CTGGCAAG,inactive: -0.0669
16,CAGTAGAG,inactive: -0.0182
17,AGCTTATG,inactive: 0.0779
18,ACGTCTGC,inactive: -0.123
19,ACAAGTTA,active: 0.325
20,AAAAGACG,inactive: -0.0121
21,ACGCCGAG,inactive: -0.176
22,AGCTCGCG,inactive: -0.138
23,CACGACCG,inactive: -0.0298
24,AGGACGCG,inactive: -0.0824
25,GGTGCAAC,inactive: -0.038

row,Sequence,PBM E-score
1,GAGTCGGA,inactive: -0.0728
2,CGTGGGTC,inactive: -0.137
3,AGAGGGAC,inactive: -0.137
4,ATGTTTCC,inactive: 0.236
5,AAACTCAA,inactive: 0.0724
6,CGAAGCGA,inactive: -0.135
7,ACAGCAGT,inactive: 0.0288
8,CGGGCGGC,inactive: -0.3
9,GGCGCAAA,inactive: -0.126
10,AGCCCAAA,≥ -0.0354
11,CCCGCCAA,inactive: -0.216
12,GCCAGAGC,inactive: -0.225
13,AACCCGAC,inactive: -0.0155
14,CAATCTCC,inactive: -0.0317
15,CCTGGTGA,inactive: -0.102
16,AAGTGACT,inactive: 0.0564
17,AAAGTGAA,inactive: 0.0917
18,GAGTATAA,inactive: 0.0623
19,TCCCTAAA,inactive: 0.014
20,AGACGGAA,inactive: -0.024
21,ACGAATTA,inactive: 0.0439
22,AACGGTTG,inactive: 0.125
23,ACTCCACA,inactive: 0.0339
24,ATTCGGGC,inactive: -0.1
25,CTACTCAC,inactive: 0.0344

row,Sequence,PBM E-score
1,CGGATGGC,inactive: -0.0761
2,GCGTTCGA,inactive: 0.00771
3,ACATTTTA,inactive: 0.202
4,CTAACTCA,inactive: -0.00933
5,ATCGAACA,inactive: 0.212
6,CTAGATTC,inactive: -0.0672
7,CGTTTTAA,inactive: 0.0453
8,ACCAAAGG,inactive: -0.0603
9,CCCAATGC,inactive: -0.155
10,CCCTGGTC,inactive: -0.167
11,ACCTGAAT,inactive: 0.156
12,GTAATTTA,inactive: 0.144
13,GCGCGGAC,inactive: -0.0723
14,AGAACTTA,inactive: 0.0726
15,AAACTAGA,inactive: 0.134
16,CTCTACTC,inactive: -0.0791
17,GTTAGAGA,inactive: -0.0316
18,AATTCCCA,≥ 0.0659
19,ACCTAGGG,inactive: -0.195
20,AGACCATG,inactive: 0.0878
21,ATAGGTAC,inactive: 0.188
22,CTTTCGAA,inactive: -0.134
23,TAAGAGAA,inactive: 0.0458
24,GATGGCTA,inactive: 0.0327
25,TGAACACA,inactive: 0.309

row,Sequence,PBM E-score
1,AGTCATAG,inactive: -0.00854
2,GATGGGCC,inactive: -0.256
3,ATAGTCCG,inactive: 0.00249
4,GATGAACC,inactive: 0.00393
5,CGTCAGCC,inactive: -0.0882
6,ATAATACA,inactive: 0.304
7,CGAACAAC,≥ 0.298
8,ATACTACC,inactive: 0.0922
9,AAAGACAC,inactive: 0.195
10,ATGTAACG,active: 0.347
11,CAGCCAAG,inactive: -0.0679
12,AACTGGGG,inactive: -0.165
13,AGTTCTAG,inactive: -0.0919
14,AGGCTAGC,inactive: -0.106
15,AACTTCAC,inactive: 0.0481
16,CCCTTTCG,inactive: -0.0818
17,CCCCCTAA,inactive: -0.267
18,TCACTACA,inactive: 0.203
19,CCACATAG,inactive: -0.12
20,AAAGTCAC,inactive: 0.0854
21,AAAGGATG,inactive: 0.0452
22,TACCAATA,inactive: 0.13
23,GAGTTCAC,≥ 0.0472
24,AAAAAGCA,inactive: 0.023
25,AGTATTGG,inactive: 0.0192

row,Sequence,PBM E-score
1,CAGGTATG,inactive: 0.09
2,CGCTCGAC,inactive: -0.102
3,CTCCTGAC,inactive: -0.0862
4,TCGGATCA,inactive: 0.032
5,GGACCGCC,inactive: -0.285
6,ACCGTGCT,inactive: -0.0257
7,AGAACGAC,inactive: 0.0755
8,AAACGAAT,inactive: 0.0632
9,CAGTAAGG,inactive: -0.0179
10,CTTAGCGC,inactive: -0.0941
11,TATTCAGA,inactive: 0.0798
12,ATCGTTCC,inactive: -0.0486
13,ACCCTTAG,inactive: -0.132
14,AGCGTCTG,inactive: -0.09
15,CACGGGTA,inactive: 0.0209
16,CAAGGGAC,inactive: 0.00511
17,AGATGGTA,inactive: 0.13
18,ATATCACA,inactive: 0.198
19,AAACGTAA,inactive: 0.115
20,CGTGGCGC,inactive: -0.206
21,AGTTACAT,active: 0.319
22,GCGGGACA,inactive: -0.0364
23,CTGCTAAA,inactive: -0.00878
24,TAGATTCA,inactive: 0.0428
25,ACACGCGA,inactive: 0.262

row,Sequence,PBM E-score
1,CTTATGTA,active: 0.345
2,ATCCAGCC,inactive: -0.0544
3,TAACGTAA,inactive: 0.176
4,CCCGGACA,inactive: 0.107
5,CGGACAGA,inactive: 0.0699
6,GGTACGCA,inactive: 0.0341
7,GTGCCGTA,inactive: -0.0637
8,CTTTTAAC,inactive: -0.029
9,GTGCGTCA,inactive: -0.0558
10,CAACTAGC,inactive: 0.12
11,AGAATCGA,inactive: -0.0466
12,CGTATCAG,inactive: 0.0641
13,CGGGTCAC,inactive: -0.222
14,AAACGGTT,inactive: -0.0166
15,ACGCCTAG,inactive: -0.0826
16,GTCGGTCA,inactive: 0.0243
17,ATTCAGAG,inactive: 0.0966
18,CCGAACTA,inactive: 0.00691
19,CACGAGAC,inactive: 0.0192
20,AACTTGGT,inactive: 0.0786
21,AGACTGAA,inactive: 0.0149
22,ACCTCCAT,inactive: -0.0592
23,CCCGTTCG,inactive: -0.0961
